The record followed here is article PMC4336329 (PLoS ONE, 2015).

The whole screen tested about 310,000 compounds, of which about 2,200 (0.71%) showed an effect of 50% or more. The effect is printed as a negative number. The list shows a part of the results.

Chain of human ether-à-go-go-related gene (hERG) potassium channel (Q12809 whole entry, looked up): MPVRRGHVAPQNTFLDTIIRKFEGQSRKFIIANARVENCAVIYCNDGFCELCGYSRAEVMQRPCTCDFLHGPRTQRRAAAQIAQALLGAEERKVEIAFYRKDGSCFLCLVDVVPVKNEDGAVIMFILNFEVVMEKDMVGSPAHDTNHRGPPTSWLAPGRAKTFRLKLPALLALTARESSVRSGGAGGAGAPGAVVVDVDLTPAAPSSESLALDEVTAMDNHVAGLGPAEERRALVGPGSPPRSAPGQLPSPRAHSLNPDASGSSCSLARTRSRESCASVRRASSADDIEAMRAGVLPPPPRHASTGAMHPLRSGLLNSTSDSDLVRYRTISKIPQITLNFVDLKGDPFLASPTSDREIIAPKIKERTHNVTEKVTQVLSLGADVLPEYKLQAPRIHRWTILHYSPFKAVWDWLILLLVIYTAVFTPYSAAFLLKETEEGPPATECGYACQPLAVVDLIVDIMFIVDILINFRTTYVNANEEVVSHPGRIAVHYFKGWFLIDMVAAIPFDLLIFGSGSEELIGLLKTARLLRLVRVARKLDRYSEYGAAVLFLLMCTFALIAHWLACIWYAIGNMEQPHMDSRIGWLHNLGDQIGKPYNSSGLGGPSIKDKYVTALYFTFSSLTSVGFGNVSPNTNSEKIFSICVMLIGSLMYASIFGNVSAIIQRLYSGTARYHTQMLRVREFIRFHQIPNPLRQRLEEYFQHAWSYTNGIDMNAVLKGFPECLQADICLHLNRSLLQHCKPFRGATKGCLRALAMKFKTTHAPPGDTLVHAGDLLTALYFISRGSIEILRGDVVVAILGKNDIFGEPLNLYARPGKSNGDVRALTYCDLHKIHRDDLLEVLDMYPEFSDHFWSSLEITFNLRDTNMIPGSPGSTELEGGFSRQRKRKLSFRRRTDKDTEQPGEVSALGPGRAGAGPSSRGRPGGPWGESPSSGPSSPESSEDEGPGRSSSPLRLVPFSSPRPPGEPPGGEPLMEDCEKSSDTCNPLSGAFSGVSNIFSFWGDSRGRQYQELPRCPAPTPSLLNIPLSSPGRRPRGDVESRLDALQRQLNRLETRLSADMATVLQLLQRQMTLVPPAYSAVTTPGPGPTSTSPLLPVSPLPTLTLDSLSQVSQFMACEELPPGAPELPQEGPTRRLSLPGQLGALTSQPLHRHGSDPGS

This assay has as its target human ether-à-go-go-related gene (hERG) potassium channel (human, UniProt Q12809). The assay is described as follows: primary screen, population patch clamp on CHO cells stably expressing hERG.
In the case of `CC1CN(C(C)C(=O)NC(c2ccccc2)c2ccccc2)CC(C)O1` (stereo not shown), the “hERG current change (%, negative = inhibition) at 1uM” value is 9.48%.
Consider `NC(=O)c1ccc(CSc2nc3ccccc3s2)cc1`, for which the “hERG current change (%, negative = inhibition) at 1uM” value is listed as 12.1%.
In the case of `COc1ccccc1OCC(=O)OCc1cc(-c2ccco2)on1` it was 15.9%.
In the case of `O=c1cc(N2CCN(Cc3ccccc3)CC2)[nH]c(=O)n1Cc1ccc(F)cc1` it was 2.68%.
In the case of `CCC(=O)OC1(C)C(=O)C=C2C=C(C3CC3)OC=C2C1=O` (stereo not shown) it was 9.36%.
Consider `CCOC(=O)C1CCN(S(=O)(=O)c2cc(C(=O)N3CCCCC3)ccc2OC)CC1`, for which the “hERG current change (%, negative = inhibition) at 1uM” value is 12.2%.
As for `COC(=O)CC1COc2ccccc2N1S(=O)(=O)c1ccc(Br)cc1` (stereo not shown), the “hERG current change (%, negative = inhibition) at 1uM” value came to 12.3%.
Regarding `COC(=O)c1ccc(CSc2nc(C)nc3sc(C)c(C)c23)o1`, the “hERG current change (%, negative = inhibition) at 1uM” value was determined as 12.3%.
For the molecule `O=C(CC1S/C(=N/N=C/c2cccs2)NC1=O)Nc1ccc(Cl)cc1` (stereo not shown), the “hERG current change (%, negative = inhibition) at 1uM” value is listed as 2.3%.
For `COC(=O)C(N)Cc1ccc(O)c(O)c1.Cl` (stereo not shown), the “hERG current change (%, negative = inhibition) at 1uM” value was 5.95%.
In the case of `CC(=O)NC(c1ccc([N+](=O)[O-])cc1)c1c(O)ccc2ccccc12` (stereo not shown) it was 4.04%; in that of `COC(=O)c1ccc(/C=N/OCC(=O)Nc2cc(F)ccc2F)cc1`, 4.52%.
For the molecule `Cc1cccc(N(CC(=O)NC2CCCC2)C(=O)c2cc3cc4cccc(C)c4nc3s2)c1C`, the “hERG current change (%, negative = inhibition) at 1uM” value worked out at 11.7%.
Regarding `CCOC(=O)/C(C#N)=C1/C=C(C)c2ccccc2N1`, the “hERG current change (%, negative = inhibition) at 1uM” value is given as 11.3%.
The figure for `CC(=O)Nc1ccc(NC(=O)CN2CCCC(C)C2)c(Cl)c1` (stereo not shown) is -2.05%; for `Cn1c(/N=C/c2cccs2)nc2ccccc21` it is 12.8%.
As for `COc1c(C)cc(NC(=O)c2ccc3c(c2)NC(=O)CO3)cc1C`, the “hERG current change (%, negative = inhibition) at 1uM” value came out at 12.2%.
Turning to `CC(Sc1nnc(C2CCCCC2)n1N)C(=O)NCc1ccc2c(c1)OCO2` (stereo not shown), the “hERG current change (%, negative = inhibition) at 1uM” value is 11%.
As for `Cc1occc1-c1nnc(SCCNCCO)o1.O=C(O)C(=O)O`, the “hERG current change (%, negative = inhibition) at 1uM” value came to 25.1%.
The figure for `Cc1ccc2nsnc2c1S(=O)(=O)NCc1cccnc1` is 6.63%; for `CCN(CC)S(=O)(=O)c1cccc(N=Nc2sc(N)nc2C)c1` it is 11.6%.
As for `Nc1scn[n+]1Cc1cccc2cccnc12.[Br-]`, the “hERG current change (%, negative = inhibition) at 1uM” value turned out to be 1.03%.
The figure for `COc1cc(C2c3cc4c(cc3C(OC3OC5COC(c6cccs6)OC5C(O)C3O)C3COC(=O)C23)OCO4)cc(OC)c1O` (stereo not shown) is 17.8%; for `Cc1ccc(C(C)n2cc(C(=O)NCc3ccncc3)nn2)cc1` (stereo not shown) it is 4.48%.
For the molecule `CC(C)(C)C1CCC(=NNC(=S)NCc2ccccc2)CC1` (stereo not shown), the “hERG current change (%, negative = inhibition) at 1uM” value is -3.94%.
The figure for `CCN(CC)C(=O)c1[nH]cnc1C(=O)Nc1ccon1` is 11.2%; for `Cc1ccc(/C(COc2ccccc2O)=N\O)cc1` it is 4.97%.
With `COc1ccc(C(=O)C(C)N(C(=O)c2ccc(Cl)cc2Cl)N2C(=O)C3C4C=CC(C4)C3C2=O)cc1` (stereo not shown), the “hERG current change (%, negative = inhibition) at 1uM” value is reported as 9.69%.
The figure for `CCOC(=O)c1cncc(O)c1` is 10.8%; for `CCCNC(=O)CSc1nccn1Cc1ccc(OC)cc1` it is 10.9%.
In the case of `Cn1c(=O)c2c(nc(Oc3cccc(O)c3)n2C)n(C)c1=O` it was 15.9%; in that of `Clc1nc(NC2CCCC2)nc(N2CCOCC2)n1`, 11.8%.
With `COc1cccc(NC(=O)c2ccc3c(c2)CCCC3)c1`, the “hERG current change (%, negative = inhibition) at 1uM” value turned out to be 8.93%.
For `C[C@@]12CCC=C[C@H]1[C@H](c1ccc(/C=C/c3ccccc3)cc1F)N(Cc1ccccc1)C2=O`, the “hERG current change (%, negative = inhibition) at 1uM” value is 19.1%.
On to `COc1ccccc1CNC(=O)[C@@H]1CCCN1C(=O)[C@@H]1Cc2ccccc2CN1C(=O)OC(C)(C)C`, for which the “hERG current change (%, negative = inhibition) at 1uM” value was -0.37%.
Turning to `CC1CCCCN1S(=O)(=O)c1ccc(S(=O)(=O)N(CC(=O)Nc2ccccc2)Cc2cccs2)cc1` (stereo not shown), the “hERG current change (%, negative = inhibition) at 1uM” value came to 30.4%.
In the case of `O=[N+]([O-])c1ccc(N2CCN(S(=O)(=O)c3ccc4ccccc4c3)CC2)cc1NCc1ccco1` it was 13.4%.
With `CN(c1nc2ccccc2n2c(C3CC3)nnc12)S(=O)(=O)c1ccccc1`, the “hERG current change (%, negative = inhibition) at 1uM” value was found to be 17.6%.
The figure for `O=C(Nc1nnc(Cc2ccccc2)s1)c1cccnc1` is 3.62%; for `Cc1cc2[nH]c(=O)c(=O)[nH]c2cc1S(=O)(=O)Nc1cccc(Cl)c1C` it is -0.643%.
`CC1CSc2ccccc2NC1=S` (stereo not shown): the “hERG current change (%, negative = inhibition) at 1uM” value amounted to 10.9%.
The figure for `O=C(c1ccc2c(c1)OCO2)C1CCCN(C2CCN(CCc3ccccc3)CC2)C1` (stereo not shown) is -38.9%; for `O=S(=O)(NC1CCc2ccccc21)c1ccc(S(=O)(=O)N2CCCC2)cc1` (stereo not shown) it is 1.4%; for `COc1cc(C(=O)OCc2cc(=O)c(O)co2)ccc1OC(F)F` it is 3.75%.
Regarding `CCCC(C)NC(=S)Nc1cc(C)cc(C)c1` (stereo not shown), the “hERG current change (%, negative = inhibition) at 1uM” value is on record as -14.4%.
As to `CSC1=N/C(=C\C=C\c2cccs2)C(=O)S1`, the “hERG current change (%, negative = inhibition) at 1uM” value turned out to be 11.1%.
